# Test results as given in PubChem BioAssay AID588855 (National Center for Advancing Translational Sciences (NCATS), 2011).
# The whole screen tested about 410,000 compounds, of which about 5,000 (1.2%) were called active. The shares of active, inactive and inconclusive entries below differ from those in the screen. Calls come from the whole dose curve; as a rule, active = well fitted inhibition curve with a large enough effect; inconclusive = small, poorly fitted or top-dose-only effect; inactive = no such curve, though single readings can be large or run the other way. Potencies beside an inconclusive call are fits to weak or partial responses and may not hold up. Peptide text beside a SMILES is read from it. * marks the point of attachment. Boc = CC(C)(C)OC(=O)*
# Experiment: qHTS for Inhibitors of TGF-b; note: nearly all actives have a fitted effect of over 65% in size
# Settings: HepG2 CAGA-GFP TGF-b/SMAD3 reporter, GFP fluorescence, 18 h, TGF-beta stimulated, 500 pg/mL final; series mostly up to 46.1 µM; activity, negative = inhibition: at the top concentration
# Procedure, shortened: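 GFP signal (ex488/em500-530) from TGF-beta-stimulated HEPG2 CAGA-GFP cells, 500 pg/mL final, 18 h at 37 degrees C in DMEM plus 1% FBS, normalized to unstimulated and DMSO-stimulated controls.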
# % is set by controls: 0 for no effect and ±100 for the full control effect; potency is the fitted concentration of half-maximal effect; tags give direction and shape of the fitted curve.
SMILES,Potency,"activity, negative = inhibition"
C/C(=N\NC(=O)C1CC1)c1ccc(OC(F)F)cc1OC(F)F,"inconclusive: 15.8 µM [inhibitor, single point]",
O=C(CN(c1cccc(Br)c1)S(=O)(=O)c1ccccc1)N/N=C/c1cc([N+](=O)[O-])ccc1O,"inconclusive: 35.5 µM [inhibitor, single point]",
C(=N\Nc1nc(Nc2ccccc2)nc(Nc2ccccc2)n1)/c1ccncc1,"inconclusive: 11.2 µM [inhibitor, partial curve]",
CCOC(=O)N1CCN(C(=O)C(C)n2nc(C)n3c(cc4sccc43)c2=O)CC1 (configuration not stated),"inconclusive: 3.16 µM [inhibitor, partial curve, poor fit]",
CC1=C(C(=O)N(C(C)C)C(C)C)CC(CC(=O)NCc2cccs2)C(=O)N1Cc1ccc(F)cc1 (configuration not stated),"inconclusive: 7.94 µM [inhibitor, partial curve, poor fit]",
O=S(=O)(c1ccc(-c2csc(=Nc3ccc(OC(F)(F)Cl)cc3)n2CCCO)cc1)N1CCCC1,active: 3.55 µM,
Cc1cc(Cn2nc(-c3ccccc3)cc2C(=O)NCc2cccc(C(F)(F)F)c2)on1,"inconclusive: 35.5 µM [inhibitor, single point]",
O=C(Nc1cc2ccc(O)cc2oc1=O)c1ccccc1,,inactive: 0%
CC(C)CCNC(=O)c1ccc2c(c1)N(Cc1ccccc1F)C(=O)c1ccccc1S2(=O)=O,,inactive: -2.3%
CCCN(CCC)C(=O)c1ccc2c(c1)N(Cc1ccccc1)C(=O)CS2=O (configuration not stated),"inconclusive: 17.8 µM [inhibitor, partial curve, poor fit]",
CCCCn1c(NC(=O)c2ccco2)c(S(=O)(=O)c2ccc(C)cc2)c2nc3ccccc3nc21,"inconclusive: 7.08 µM [inhibitor, full curve]",
COC(=O)c1ccc2c(C)c(C3(O)CCCCC3)[nH]c2c1,"inconclusive: 14.1 µM [inhibitor, single point]",
Cc1cc(C(=O)Nc2nc(-c3ccccn3)cs2)ccc1[N+](=O)[O-],"inconclusive: 20 µM [inhibitor, single point]",
Cc1ccc(C)c(OCC(=O)Nc2ccccc2C(=O)N2CCN(C)CC2)c1,,inactive: -6.66%
COc1ccc(N2CCN(C(=O)[C@@H]3CCCN3C3=NS(=O)(=O)c4ccccc43)CC2)cc1,,inactive: 14.4%
CCOC(=O)c1[nH]c(C)c(CCC(=O)Nc2cccc(SC)c2)c1C,"inconclusive: 35.5 µM [inhibitor, single point]",
CCn1c(=O)c(C(=O)CN2CCN(S(=O)(=O)c3ccc(C)cc3C)CC2)c(N)n(Cc2ccccc2)c1=O,"inconclusive: 10 µM [inhibitor, partial curve]",
Cc1cc(=O)[nH]c2nnc(SCc3ccc(C(F)(F)F)cc3)n12,"inconclusive: 15.8 µM [inhibitor, single point]",
Cc1ccc(-c2nn(-c3ccccc3)cc2CNCc2ccccc2)cc1,"inconclusive: 35.5 µM [inhibitor, single point]",
O=C(C[n+]1ccc(Cc2ccccc2)cc1)Nc1ccccc1,,inactive: -21.7%
CC(=NO)c1ccc2c(c1)Cc1cc([N+](=O)[O-])ccc1-2,"inconclusive: 25.1 µM [inhibitor, single point]",
CCOc1ccc2nc(N3CCCC(C(=O)NCCCN4CCCCC4)C3)sc2c1 (configuration not stated),,inactive: -3.97%
CCOc1ccc(-c2nnc(SCC(=O)c3ccccc3)n2-c2ccccc2)cc1,"inconclusive: 20 µM [inhibitor, single point]",

SMILES,Potency,"activity, negative = inhibition"
COC(=O)CNC(=O)N1CCN(S(=O)(=O)c2ccc3c(ccn3C)c2)CC1,,inactive: -20.5%
COc1ccc(C(=O)Nc2ccc3oc(-c4ccc5ccccc5c4)nc3c2)cc1Br,,inactive: -19.7%
Cc1occc1C(=O)N1CCN(c2ccc([N+](=O)[O-])cc2)CC1,,inactive: -8.2%
COC(=O)c1ccc2c(c1)C(C)(C)C(/C=C/c1ccc(O)cc1)=[N+]2C,active: 3.98 µM,
CCCCNC(=O)CN1C(=O)COc2ccc(S(=O)(=O)N3CCCCCC3)cc21,"inconclusive: 28.2 µM [inhibitor, single point]",
O=[N+]([O-])c1cc2c(c([N+](=O)[O-])c1)Nc1ccccc1O2,"inconclusive: 10 µM [inhibitor, partial curve]",
CCC(=O)N1CCCC(C)(C(=O)NS(=O)(=O)c2cccs2)C1 (configuration not stated),,inactive: -3.42%
CCC(C)C(NC(=O)C1CCC(C)CC1)C(=O)NCCc1ccc(S(N)(=O)=O)cc1 (configuration not stated),,inactive: -16.4%
Cc1cccc(Cc2c(C)nc3nc(SCc4ccccc4Cl)nn3c2C)c1,"inconclusive: 1.12 µM [inhibitor, full curve, poor fit]",
COCCCNC(=O)CC(NS(=O)(=O)c1ccc(C)cc1)c1ccco1 (configuration not stated),"inconclusive: 20 µM [inhibitor, single point]",
CCOc1ccccc1CNC(=O)Cn1ccc2cc(S(=O)(=O)N3CCCCCC3)ccc21,"inconclusive: 15.8 µM [inhibitor, single point]",
CCCN1CCC(=O)N(CCSc2ccc(OC)cc2)CC1,inactive,
O=C(Nc1ccc(-c2nc3ccccc3s2)c(OC(=O)c2ccccc2)c1)c1ccccc1,,inactive: 9.01%
Fc1ccc2c(-c3cccc(C(F)(F)F)c3)c(-c3ccccc3)ncc2c1,"inconclusive: 10 µM [inhibitor, partial curve, poor fit]",
COC(=O)C1=C(C)N(Cc2ccccc2)C(=O)N[C@H]1c1cccc(C(F)(F)F)c1,"inconclusive: 22.4 µM [inhibitor, single point]",
CCC(C)C(NC(=O)OC(C)(C)C)C(=O)NC(C(=O)N1CCCC1C(N)=O)C(C)CC (stereo not drawn) (Boc-Ile-Ile-Pro-NH2; configuration not given here),"inconclusive: 25.1 µM [inhibitor, single point]",
CCOC(=O)c1cccc(NC(=O)CC2C(=O)N(c3ccc(C)cc3)C(=O)N2Cc2cccc(OC)c2)c1 (configuration not stated),"inconclusive: 15.8 µM [inhibitor, single point]",
CN(C)c1ccc(CNC(=O)c2cnc3sc(N4CCCCCC4)nn3c2=O)cc1,,inactive: -6.5%
COc1ccc(Cl)cc1-c1cc(C(=O)Nc2ccccc2)[nH]n1,,inactive: 3.34%
Cn1c(=O)c([N+](=O)[O-])c(NCCc2ccccc2)c2ccccc21,,inactive: -1.1%
COc1cccc(NS(=O)(=O)c2ccc3[nH]cc(C(=O)NC4CC4)c(=O)c3c2)c1,"inconclusive: 35.5 µM [inhibitor, single point]",
COc1ccc(-c2nc(C)c(CCNC(=O)c3c(F)cccc3F)s2)cc1,,inactive: 9.84%
CC(=O)C1=CCC(c2ccc(Cl)cc2)N(S(=O)(=O)c2ccccc2C)C1 (configuration not stated),"inconclusive: 12.6 µM [inhibitor, single point]",

SMILES,Potency,"activity, negative = inhibition"
NC(=O)c1ccsc1NC(=O)CSc1nnc(C2CC2)n1Cc1ccccc1,"inconclusive: 35.5 µM [inhibitor, single point]",
COc1ccc(CNC(=O)CCC(=O)c2ccc(F)cc2)cc1OC,"inconclusive: 2.82 µM [inhibitor, partial curve, poor fit]",
O=C(Nc1ccccc1O)c1cc(S(=O)(=O)N2CCCC2)ccc1Cl,"inconclusive: 20 µM [inhibitor, single point]",
O=C(OCCNc1nc(-c2ccccc2)nc2ccccc12)c1ccncc1,,inactive: 4.18%
O=C(Nc1ccc(S(=O)(=O)Nc2ccccc2)cc1)c1ccc(CN2CCOCC2)cc1,"inconclusive: 1.12 µM [inhibitor, full curve, poor fit]",
Cc1ccc(C(=O)CN(Cc2ccccc2)C2=NCCS2)cc1,"inconclusive: 5.62 µM [inhibitor, single point]",
CC1Oc2cc3oc4c(O)c(O)ccc4c(=O)c3c(O)c2C1(C)C (configuration not stated),"inconclusive: 35.5 µM [inhibitor, single point]",
C/C(=N\NC(=O)c1ccc(CN2CCOCC2)cc1)c1ccc([N+](=O)[O-])cc1,"inconclusive: 11.2 µM [inhibitor, partial curve, poor fit]",
COc1nc(C)nc(NC(=O)NS(=O)(=O)c2ccc(C)cc2)n1,,inactive: 0.594%
CCOC(=O)C1CCCN(C(=O)c2cccnc2Oc2ccccc2)CC1 (configuration not stated),,inactive: 7.53%
C(=N\Nc1ncnc2sc3c(c12)CCC3)/c1ccncc1,"inconclusive: 15.8 µM [inhibitor, single point]",
CNS(=O)(=O)c1cccc(C(=O)OCC(=O)Nc2ccc(N3CCCCC3)cc2)c1,,inactive: -1.45%
O=C(NCc1nnc(SCc2ccc(F)cc2)n1-c1ccccc1)C12CC3CC(CC(C3)C1)C2,"inconclusive: 35.5 µM [inhibitor, single point]",
COc1ccccc1NC(=S)Nc1ccccn1,"inconclusive: 22.4 µM [inhibitor, single point]",
O=C(/C=C/c1ccc2ccccc2n1)N1CCN(S(=O)(=O)c2ccccc2F)CC1,"inconclusive: 20 µM [inhibitor, single point]",
Cc1nc2c(-c3ccccc3)c(C)nn2c(C)c1CCC(=O)Nc1ccccc1F,"inconclusive: 35.5 µM [inhibitor, single point]",
Cc1ccc(-c2nn(CCC(=O)O)cc2/C=C\C(=O)c2ccc(Br)cc2)cc1,"inconclusive: 25.1 µM [inhibitor, single point]",
Cc1ccccc1C(=O)OCC(=O)NCc1ccco1,,inactive: 2.45%
O=S(=O)(c1ccc(NC(=S)N/N=C/c2ccc(O)c(O)c2)cc1)N1CCOCC1,"inconclusive: 35.5 µM [inhibitor, single point]",
CO/N=C/C(NC(=O)c1ccc(C(F)(F)F)cc1)C(=O)OC (configuration not stated),,inactive: -8.1%
CCCCC(=O)Nc1nnc(SCC(=O)NCC2CCCO2)s1 (configuration not stated),,inactive: -5.68%
